Screen size: about 310,000 compounds; about 14,000 (4.5%) showed an effect of 50% or more. Effects have a minus sign here. The list shows a part of the results.
Target: human ether-à-go-go-related gene (hERG) potassium channel (human, UniProt Q12809)
Assay: primary screen, population patch clamp on CHO cells stably expressing hERG
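Note: peak tail current of the secondary pulse compared with the same well before compound.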

Chain of human ether-à-go-go-related gene (hERG) potassium channel (Q12809 whole entry, looked up): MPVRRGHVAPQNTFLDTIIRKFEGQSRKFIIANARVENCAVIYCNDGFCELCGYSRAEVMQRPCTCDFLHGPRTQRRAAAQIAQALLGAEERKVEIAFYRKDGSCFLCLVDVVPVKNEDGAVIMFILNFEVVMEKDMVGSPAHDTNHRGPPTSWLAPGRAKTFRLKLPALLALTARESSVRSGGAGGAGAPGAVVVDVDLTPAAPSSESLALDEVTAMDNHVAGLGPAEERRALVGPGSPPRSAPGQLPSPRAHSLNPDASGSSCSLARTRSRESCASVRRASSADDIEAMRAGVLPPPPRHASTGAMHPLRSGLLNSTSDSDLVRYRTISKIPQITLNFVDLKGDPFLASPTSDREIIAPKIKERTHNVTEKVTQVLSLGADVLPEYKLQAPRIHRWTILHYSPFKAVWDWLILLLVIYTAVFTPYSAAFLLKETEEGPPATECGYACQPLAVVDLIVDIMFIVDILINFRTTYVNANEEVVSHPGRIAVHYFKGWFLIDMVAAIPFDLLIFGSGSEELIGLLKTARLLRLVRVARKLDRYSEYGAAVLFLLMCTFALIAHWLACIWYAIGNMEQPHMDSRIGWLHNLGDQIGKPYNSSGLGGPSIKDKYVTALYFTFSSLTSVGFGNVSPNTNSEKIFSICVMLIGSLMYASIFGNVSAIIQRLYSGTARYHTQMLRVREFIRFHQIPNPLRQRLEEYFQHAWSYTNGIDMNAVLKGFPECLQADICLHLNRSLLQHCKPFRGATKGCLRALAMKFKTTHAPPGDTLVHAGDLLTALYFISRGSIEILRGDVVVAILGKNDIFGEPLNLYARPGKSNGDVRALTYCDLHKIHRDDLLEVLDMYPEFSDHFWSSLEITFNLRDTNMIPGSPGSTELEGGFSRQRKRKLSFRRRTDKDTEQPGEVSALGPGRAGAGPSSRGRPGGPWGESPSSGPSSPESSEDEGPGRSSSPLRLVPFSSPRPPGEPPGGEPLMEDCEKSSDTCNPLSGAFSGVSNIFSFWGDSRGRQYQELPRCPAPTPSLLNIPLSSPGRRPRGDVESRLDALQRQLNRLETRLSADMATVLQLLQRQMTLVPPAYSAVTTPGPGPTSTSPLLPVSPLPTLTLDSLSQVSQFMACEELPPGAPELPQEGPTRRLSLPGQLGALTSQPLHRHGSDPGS

| SMILES | hERG current change (%, negative = inhibition) at 10uM [%] |
| --- | --- |
| O=C(CCC1CCCCC1)NCCN1C2=NC[C@H](Cc3ccccc3)N2C[C@H]1Cc1ccc(O)cc1 | -42 |
| CCC/C(O)=C1\C(=O)CC(C)(C)CC1=Nc1ccccc1O | 2.95 |
| CC(C)NC(=O)CSCc1ccccc1Cl | 12.9 |
| COCCCNC(=O)c1cc(Nc2ccc(OC)cc2OC)nc2ccccc12 | 16.7 |
| O=C(/C=C/c1ccc(Cl)cc1Cl)N1CCN(c2ccc([N+](=O)[O-])c(N3CCOCC3)c2)CC1 | -34.5 |
| COC(=O)c1ccc(NC(=S)N2CCN(Cc3ccc(Cl)cc3)CC2)cc1 | 1.51 |
| CCCCCCCCCCOC(=O)Cn1c(COc2cccc(OC)c2)[n+](C)c2ccccc21.[Cl-] | -76.7 |
| O=C(COC(=O)c1ncc(Cl)c(Cl)c1Cl)c1ccc(Cl)s1 | 4.81 |
| O=C(O)CCCCCn1c(SCC(=O)Nc2ccc(F)cc2)nc2ccsc2c1=O | 25.3 |
| Cc1cc2c(c(=O)n1CCc1ccccc1)C(C(C)C)C(C#N)=C(N)O2 (centres unmarked) | 5.58 |
| O=C(c1ccccc1)N1CN2CN(C(=O)c3ccccc3)CC([N+](=O)[O-])(C2)C1 | 21.8 |
| COc1ccc(CCNC(=O)C(=O)NCC2OCCN2S(=O)(=O)c2ccc(OC)cc2)cc1 (centres unmarked) | -47.3 |
| CC(C)CNC(=O)C(=O)N/N=C/c1cccs1 | -1.2 |
| O=c1c2ccccc2cnn1-c1ccc2ccccc2c1 | 2.34 |
| O=C(NCCn1cccn1)C1CCC(=O)N(CCc2cccc(F)c2)C1 (centres unmarked) | 0.7 |
| Cc1sc(NC(=O)Cn2nc(C(F)(F)F)cc2C)c(C(=O)OC(C)C)c1C | 9.3 |
| CCC(CC)C(=O)Nc1ccc(C)cc1O | 12.1 |
| CCOc1ccc(NC(=O)CCN2C(=O)CSc3ccccc32)cc1 | -25.3 |
| Cc1cccn2c(=O)c(/C=C(\C#N)S(=O)(=O)c3ccccc3)c(N3CCCCC3)nc12 | 9.28 |
| COc1ccc(CNC(=O)CN(C(=O)c2snc(C(N)=O)c2N)c2cccc(F)c2)cc1 | 16.4 |
| COc1cc(/C=N\NC(=O)c2cccnc2)ccc1OC(=O)c1ccccc1Cl | -7.3 |
| O=C(CCN1C(=O)S/C(=C\c2ccccc2)C1=O)N1CCCCC1 | -19.9 |
| CC(C)C(=O)C1=Cc2cc([N+](=O)[O-])ccc2OC1N1CCOCC1 (centres unmarked) | -3.01 |

| SMILES | hERG current change (%, negative = inhibition) at 10uM [%] |
| --- | --- |
| Cn1c(SCc2ccc(C#N)cc2)nnc1-c1ccncc1 | -19.7 |
| CCC1CCCCN1C(=O)c1ccc(OC)c(OC2CCN(C(C)C)CC2)c1 (centres unmarked) | -19.2 |
| CCC(C)[C@H](NC(=O)N1CCC(Cc2ccccc2)CC1)C(=O)O (some centres unmarked) | 15.2 |
| Cn1c(=O)c2c(nc(NCc3ccc4c(c3)OCO4)n2C)n(C)c1=O | -13.1 |
| CC(NC(=O)C1CCN(c2nnc(N3CCCC3=O)s2)CC1)c1ccccc1 (centres unmarked) | 12.2 |
| Cc1ccc(CNc2ccc(N3CCOCC3)cc2)s1 | -6.34 |
| O=C(OC1CCOC1=O)c1cccc(S(=O)(=O)Nc2ccc(F)cc2)c1 (centres unmarked) | -4.31 |
| CCN(CC)S(=O)(=O)c1ccccc1/C=N\O | -1.33 |
| COc1cccc(-c2csc(NC(C)=O)n2)c1 | 8.32 |
| CC1CN(c2ccccc2)C(=O)CS1 (centres unmarked) | 2.96 |
| CCOC(=O)c1cccc(NC(=O)CSc2nnc(-c3cccnc3)n2CC)c1 | -37.5 |
| CCOC(=O)N1CCN(C(=O)c2ccc(NC(=O)CC)cc2)CC1 | -4.3 |
| CN(C(=O)CSc1nnc(Nc2ccccc2)s1)C1CCS(=O)(=O)C1 (centres unmarked) | -14.8 |
| CCOC(=O)C1(CC2CCCCO2)CCN(S(=O)(=O)c2ccc(C)s2)CC1 (centres unmarked) | 9.12 |
| O=C(/C=C/c1ccccc1)NC(NC(=S)Nc1ccc(Cl)cc1Cl)C(Cl)(Cl)Cl (centres unmarked) | 11.1 |
| O=C(N/N=C/c1cccnc1)c1ccccc1OCc1ccc(Br)cc1 | -52.6 |
| CSc1ccc(CNc2ccccn2)cc1 | -16.7 |
| CN(CCC#N)C(=O)COC(=O)[C@H](Cc1ccccc1)N1C(=O)c2ccccc2C1=O | -2.25 |
| CCCCn1c2nc3ccccc3nc2c2c(=O)n(CCC)cnc21 | 2.04 |
| C=CCOc1ccccc1CN1CCC(Oc2ccc(C(=O)N3CCCC3)cc2)CC1 | -41.8 |
| COc1ccccc1NC(=O)C1CCCN(S(=O)(=O)c2cnc[nH]2)C1 (centres unmarked) | 21.6 |
| O=C(c1cccc(F)c1)N1CCN(C(=O)c2cc3nc(-c4ccco4)cc(C(F)(F)F)n3n2)CC1 | -16.7 |
| Cc1nnc(NC(=O)c2ccccc2C(=O)O)s1 | 9.82 |

| SMILES | hERG current change (%, negative = inhibition) at 10uM [%] |
| --- | --- |
| C#Cc1ccc([C@@H]2C=C(C(=O)NCc3ccccc3)O[C@H](OCC)[C@H]2CCCO)cc1 | -18.4 |
| COc1cccc(CN2CC(C(=O)N(C)C3CCOCC3)CCC2=O)c1 (centres unmarked) | 10.8 |
| Cc1ccc(CC(=O)NCC(O)c2ccccc2)cc1 (centres unmarked) | 10.2 |
| CCN1CCN(C(=O)CN2C(=O)COc3ccc(C)cc32)CC1 | 13.7 |
| O=C(O)/C=C/C(=O)NNC(=O)c1ccc(Cl)cc1Cl | 11.7 |
| Cc1occc1C(=O)N1CCCC(CO)(Cc2ccc(F)cc2F)C1 (centres unmarked) | -13.6 |
| CN=C1SC(CC(=O)NCCc2ccc(OC)c(OC)c2)C(=O)N1C (centres unmarked) | 7.39 |
| ONc1cccnc1-n1nc(C(F)(F)F)cc1C(F)(F)F | 11.9 |
| Cc1c(C(=O)N2CCOCC2)cc(C(C)(C)C)n1-c1ccccc1 | -7.58 |
| CC(=O)Nc1ccc(/C=C(\C#N)C(=O)NCc2ccccc2)cc1 | 11.8 |
| O=C1CCCC(c2ccccc2)N1 (centres unmarked) | -4.84 |
| Cc1nnc(SCC(=O)Nc2ccc3c(c2)OCO3)[nH]c1=O | 21.9 |
| Cc1cc(Br)ccc1NC(=O)CCS(=O)(=O)c1cccc2nonc12 | 20.3 |
| O=C(N/N=C/c1ccc([N+](=O)[O-])o1)c1sc2ccccc2c1Cl | -22.6 |
| c1ccc2c(c1)nc1n2CCN1CCNC1CCCCC1 | -28.6 |
| Cc1cc(C(=O)COc2cccc3cccnc23)c(C)n1C | 10.8 |
| COc1ccc(Cn2c(=O)c3cccnc3n(Cc3ccc([N+](=O)[O-])cc3)c2=O)cc1 | -5.45 |
| Cc1nc(-c2ccc(S(=O)(=O)Nc3cccc(Cl)c3)cc2)co1 | 25.5 |
| Cc1ccc2nc(-c3ccccc3)nc(SC(C)C(=O)NCc3cccs3)c2c1 (centres unmarked) | 11.7 |
| Cc1cc(=O)[nH]c(SCC(=O)c2ccc(C)c(C)c2)n1 | 16.2 |
| CCOc1ccc(S(=O)(=O)NC2CCCCC2C)cc1 (centres unmarked) | -16.7 |
| O=C(c1ccc(Cl)s1)N1CCN(c2ccccc2)CC1 | -26.5 |
| CC(=O)N1CC(C)Sc2ccc(S(=O)(=O)NC(C)c3ccccc3)cc21 (centres unmarked) | 3.27 |

| SMILES | hERG current change (%, negative = inhibition) at 10uM [%] |
| --- | --- |
| COc1ccccc1C(=O)Nc1nc2cc3c(cc2s1)OCCO3 | 9.66 |
| Cc1cccc(N(CC(=O)NCCC2=CCCCC2)S(C)(=O)=O)c1C | -22.8 |
| Cc1nc2ccccc2c(=O)n1NC(=O)C1CC1 | 16.3 |
| O=C(Nc1ccccc1-c1nnc(SCc2ccccc2Cl)o1)c1ccccc1 | -6.61 |
| CC(C)(C)OC(=O)NCCCCCNC(=O)c1[nH]cnc1C(=O)Nc1ccccc1 | -53.2 |
| COc1cccc(C(O)c2cnc(C(C)C)n2C)c1OC (centres unmarked) | 12.8 |
| Cc1ccc(CNC(=O)C2CCCN(c3cnccn3)C2)cc1 (centres unmarked) | -40 |
| CC(=O)n1cc([C@@H]2C=C(C(=O)N3CCN(C)CC3)O[C@H](OCc3ccc(CO)cc3)C2)c2ccccc21 | -41.7 |
| Cc1ccc(C)c(S(=O)(=O)Nc2cc(SCC(=O)O)c(O)c3ccccc23)c1 | 5.34 |
| COc1ccc(S(=O)(=O)NC2CCc3ccccc32)cc1OC (centres unmarked) | 4.55 |
| O=C1NC2(CCCc3ccccc32)C(=O)N1CCOc1ccc(Br)cc1 (centres unmarked) | -7.68 |
| CCOC(=O)C1(CCc2ccccc2)CCN(C(=O)CN2C(=O)CSC2=O)CC1 | -23.3 |
| O=C(COC(=O)CCc1c[nH]c2ccccc12)NCc1ccc2c(c1)OCO2 | 13.2 |
| O=C(CSC1=NCCS1)Nc1cccc2ccccc12 | 2.65 |
| O=C(COc1ccc2c3c(c(=O)oc2c1)CCC3)Nc1ccc(CCO)cc1 | 21.2 |
| Cc1nc(C/C(=N\N)c2ccc(O)cc2O)cs1 | 5.58 |
| Cc1cc(CN(C)C(=O)c2ccc3nc(Cc4ccccc4F)oc3c2)n[nH]1 | 1.74 |
| CCOCCCNC(=O)C(c1ccc(Cl)cc1)N(Cc1ccc2c(c1)OCO2)C(=O)CNC(C)=O (centres unmarked) | 12.3 |
| Cl.O=C(CN1CCCCCC1)Nc1ccc(Oc2ccccc2)cc1 | -78.6 |
| COc1cccc(N2CCN(S(=O)(=O)c3cn(C)cn3)CC2)c1 | 20.8 |

— article PMC4336329 (PLoS ONE, 2015)
